Laboratory results taken from US20230416329A1, “A PEPTIDE WITH DISULFIDE BONDS AND INHIBITORY ACTIVITY AGAINST SERINE PROTEASES, DERIVED HYBRID PEPTIDES THEREOF, AND USES THEREOF” (INSTITUTE OF MATERIA MEDICA , CHINESE ACADEMY OF MEDICAL …, priority 2020, published 2023).
Not every detail of the peptide structures is certain; ends, links or a residue may be inferred. Some compounds share one wording; it may come from a single statement. Bridge positions count the residues as written; N and C are the ends. Peptide text beside a SMILES is read from it.

Legend:
mouse ear swelling = assay: Croton oil mouse ear swelling, IL-17A inhibitory peptide administered subcutaneously; assay type: in vivo; details: for inhibition of ear swelling induced by croton oil, subcutaneous (in words): 30 mg/kg s.c., Kunming male mice; for Swelling (%) / Swelling inhibitory (%): subcutaneous, peptides 30 mg/kg, Secukinumab 5 mg/kg; for Swelling (%): 4 hours after croton oil; for Swelling inhibitory (%): vs model control
Method: IL-17A is an inflammatory factor in many chronic inflammatory reactions. In order to quickly evaluate and analyze its anti-inflammatory effects, a mouse ear swelling model was first used for preliminary screening of anti-inflammatory activities. The experimental process is as follows. Kunming male mice (18-20 g, n=10) were labeled with picric acid. All mice in each group were coated with 10 μL croton oil on both sides of the right ear. Immediately after modeling, the positive drugs Secukinumab group (5 mg/kg), inhibitory peptides 17A, 17A-BT, 17A-CH, and 17A-EC (30 mg/kg) were subcutaneously injected. The model control group (Con) was injected with a corresponding volume of physiological saline. After causing inflammation for 4 hours, the mice in each group were killed for cervical dislocation, and then the ear pieces were punched in the symmetrical parts of the left and right ears with a hole punch. The weight was weighed and recorded. The swelling degree and swelling rate were calculated:
Swelling rate=((right ear mass−left ear mass)/left ear mass)*100%

normal ICR mice [1] = assay: In vivo hypoglycemic activity of GLP-1 analogues, subcutaneous administration, oral glucose loading; set-up: species or system mouse; details: for AUC (blood glucose-time curve) / Blood glucose 0 min / Blood glucose 30 min / Blood glucose 60 min / Blood glucose 120 min: subcutaneous 1 μmol/kg, mean; for AUC (blood glucose-time curve): 0-120 min; for Blood glucose 0 min: oral glucose loading 2 g/kg; for Blood glucose 30 min: 30 min after oral glucose loading; for Blood glucose 60 min: 60 min after oral glucose loading; for Blood glucose 120 min: 120 min after oral glucose loading
normal ICR mice [2] = assay: Dose-effect relationship and combinations of GLP-1 analogues by duodenal injection; assay type: in vivo, mouse; details: for influence on blood glucose, duodenal injection (in words): 2.5 and 5.0 μmol/kg, normal ICR mice; for Blood glucose 0 min / Blood glucose 15 min / Blood glucose 30 min / Blood glucose 60 min / AUC (blood glucose-time curve): mean
normal ICR mice [3] = assay: In vivo hypoglycemic activity of GLP-1 analogues, duodenal administration, oral glucose loading; set-up: species or system mouse; details: for AUC (blood glucose-time curve) / Blood glucose 0 min / Blood glucose 15 min / Blood glucose 30 min / Blood glucose 60 min: duodenal injection 10 μmol/kg, mean; for AUC (blood glucose-time curve): 0-60 min; for Blood glucose 15 min: 15 min after oral glucose loading; for hypoglycemic activity, duodenal administration (in words): 10 μmol/kg duodenal, glucose 2 g/kg by gavage
[4] = duodenal injection 10.0 μmol/kg
[5] = duodenal 10 μmol/kg, normal ICR mice, after oral glucose loading

CC[C@H](C)[C@H](N)C(=O)N[C@@H](Cc1c[nH]cn1)C(=O)N[C@H](C(=O)N[C@H](C(=O)N[C@H](C(=O)N1CCC[C@H]1C(=O)N[C@@H](C)C(=O)N[C@@H](CC(=O)O)C(=O)N[C@@H](CC(C)C)C(=O)N[C@@H](Cc1c[nH]c2ccccc12)C(=O)N[C@@H](CC(=O)O)C(=O)N[C@@H](Cc1c[nH]c2ccccc12)C(=O)N[C@H](C(=O)N[C@@H](CC(N)=O)C(=O)O)[C@@H](C)CC)[C@@H](C)CC)[C@@H](C)O)C(C)C [17A, reference compound]
inhibition of ear swelling induced by croton oil, subcutaneous (in words) (mouse ear swelling): no inhibitory effect | Swelling (%) (mouse ear swelling): 92.87 ± 27.01% | Swelling inhibitory (%) (mouse ear swelling): 19.80%

CC[C@H](C)[C@H](N)C(=O)N[C@@H](Cc1c[nH]cn1)C(=O)N[C@H](C(=O)N[C@H](C(=O)N[C@H](C(=O)N1CCC[C@H]1C(=O)N[C@@H](C)C(=O)N[C@@H](CC(=O)O)C(=O)N[C@@H](CC(C)C)C(=O)N[C@@H](Cc1c[nH]c2ccccc12)C(=O)N[C@@H](CC(=O)O)C(=O)N[C@@H](Cc1c[nH]c2ccccc12)C(=O)N[C@H](C(=O)N[C@@H](CC(N)=O)C(=O)NCC(=O)N[C@H](C(=O)N[C@H]1CSSC[C@@H](C(=O)N[C@@H](CCC(N)=O)C(=O)O)NC(=O)[C@H]([C@@H](C)CC)NC(=O)[C@@H]2CCCN2C(=O)[C@@H]2CCCN2C(=O)[C@H]([C@@H](C)CC)NC(=O)[C@H](CO)NC(=O)[C@H](C)NC(=O)[C@H]([C@@H](C)O)NC1=O)[C@@H](C)CC)[C@@H](C)CC)[C@@H](C)CC)[C@@H](C)O)C(C)C [17A-EC] (H-IHVTIPADLWDWINGICTASIPPICQ-OH; disulfide 17-25)
inhibition of ear swelling induced by croton oil, subcutaneous (in words) (mouse ear swelling): no inhibitory effect | Swelling (%) (mouse ear swelling): 90.05 ± 25.22% | Swelling inhibitory (%) (mouse ear swelling): 22.24%

CC[C@H](C)[C@H](NC(=O)[C@H](Cc1ccccc1)NC(=O)[C@H](CCC(=O)O)NC(=O)[C@H](CCCCN)NC(=O)[C@H](C)NC(=O)[C@H](C)NC(=O)[C@H](CCC(N)=O)NC(=O)CNC(=O)[C@H](CCC(=O)O)NC(=O)[C@H](CC(C)C)NC(=O)[C@H](Cc1ccc(O)cc1)NC(=O)[C@H](CO)NC(=O)[C@H](CO)NC(=O)[C@@H](NC(=O)[C@H](CC(=O)O)NC(=O)[C@H](CO)NC(=O)[C@@H](NC(=O)[C@H](Cc1ccccc1)NC(=O)[C@@H](NC(=O)CNC(=O)[C@H](CCC(=O)O)NC(=O)[C@H](C)NC(=O)[C@H](Cc1c[nH]cn1)NC(=O)CNC(=O)CNC(=O)[C@@H](NC(=O)[C@@H]1CCCN1C(=O)[C@@H](NC(=O)CNC(=O)CNC(=O)[C@H](Cc1ccc(O)cc1)NC(=O)[C@@H]1CSSC[C@H](NC(=O)[C@@H](N)Cc2ccccc2)C(=O)N[C@@H]([C@@H](C)O)C(=O)N[C@@H](Cc2ccc(O)cc2)C(=O)N[C@@H](CO)C(=O)N[C@@H]([C@@H](C)CC)C(=O)N2CCC[C@H]2C(=O)N2CCC[C@H]2C(=O)N[C@@H](CCC(N)=O)C(=O)N1)[C@@H](C)CC)[C@@H](C)CC)[C@@H](C)O)[C@@H](C)O)C(C)C)C(=O)N[C@@H](C)C(=O)N[C@@H](Cc1c[nH]c2ccccc12)C(=O)N[C@@H](CC(C)C)C(=O)N[C@H](C(=O)N[C@@H](CCCCN)C(=O)NCC(=O)N[C@@H](CCCNC(=N)N)C(=O)NCC(=O)NCC(=O)N[C@@H](CCCCN)C(=O)O)C(C)C [CH10-D-GLP-1]
AUC (blood glucose-time curve) (normal ICR mice [1]): 169.4 mg·h/dL | Blood glucose 0 min (normal ICR mice [1]): 70.0 mg/dL | Blood glucose 30 min (normal ICR mice [1]): 104.1 mg/dL | Blood glucose 60 min (normal ICR mice [1]): 93.3 mg/dL | Blood glucose 120 min (normal ICR mice [1]): 59.8 mg/dL | influence on blood glucose, duodenal injection (in words) (normal ICR mice [2]): no significant influence on the blood glucose | Blood glucose 0 min (normal ICR mice [2]; duodenal injection 2.5 μmol/kg): 63.8 mg/dL | Blood glucose 15 min (normal ICR mice [2]; duodenal injection 2.5 μmol/kg): 136.0 mg/dL | Blood glucose 30 min (normal ICR mice [2]; duodenal injection 2.5 μmol/kg): 161.6 mg/dL | Blood glucose 60 min (normal ICR mice [2]; duodenal injection 2.5 μmol/kg): 171.2 mg/dL | AUC (blood glucose-time curve) (normal ICR mice [2]; duodenal injection 2.5 μmol/kg): 145.4 mg·h/dL | Blood glucose 0 min (normal ICR mice [2]; duodenal injection 5.0 μmol/kg): 73.7 mg/dL | Blood glucose 15 min (normal ICR mice [2]; duodenal injection 5.0 μmol/kg): 143.8 mg/dL | Blood glucose 30 min (normal ICR mice [2]; duodenal injection 5.0 μmol/kg): 175.2 mg/dL | Blood glucose 60 min (normal ICR mice [2]; duodenal injection 5.0 μmol/kg): 190.9 mg/dL | AUC (blood glucose-time curve) (normal ICR mice [2]; duodenal injection 5.0 μmol/kg): 158.6 mg·h/dL | Blood glucose 0 min (normal ICR mice [2]; [4]): 77.9 mg/dL | Blood glucose 15 min (normal ICR mice [2]; [4]): 111.5 mg/dL | Blood glucose 30 min (normal ICR mice [2]; [4]): 123.4 mg/dL | Blood glucose 60 min (normal ICR mice [2]; [4]): 146.8 mg/dL | AUC (blood glucose-time curve) (normal ICR mice [2]; [4]): 120.6 mg·h/dL | reduction of blood glucose at 15 minutes compared with Nor (normal ICR mice [3]; [5]): 20.4% | reduction of the AUC of blood glucose compared with Nor (normal ICR mice [3]; [5]): 15.8% | AUC (blood glucose-time curve) (normal ICR mice [3]): 117.6 mg·h/dL | Blood glucose 0 min (normal ICR mice [3]): 69.2 mg/dL | Blood glucose 15 min (normal ICR mice [3]): 103.7 mg/dL | Blood glucose 30 min (normal ICR mice [3]): 123.1 mg/dL | Blood glucose 60 min (normal ICR mice [3]): 147.6 mg/dL | hypoglycemic activity, duodenal administration (in words) (normal ICR mice [3]; normal ICR mice): absorbed into the blood circulation and have hypoglycemic activity

CC[C@H](C)[C@H](NC(=O)[C@H](Cc1ccccc1)NC(=O)[C@H](CCC(=O)O)NC(=O)[C@H](CCCCN)NC(=O)[C@H](C)NC(=O)[C@H](C)NC(=O)[C@H](CCC(N)=O)NC(=O)CNC(=O)[C@H](CCC(=O)O)NC(=O)[C@H](CC(C)C)NC(=O)[C@H](Cc1ccc(O)cc1)NC(=O)[C@H](CO)NC(=O)[C@H](CO)NC(=O)[C@@H](NC(=O)[C@H](CC(=O)O)NC(=O)[C@H](CO)NC(=O)[C@@H](NC(=O)[C@H](Cc1ccccc1)NC(=O)[C@@H](NC(=O)CNC(=O)[C@H](CCC(=O)O)NC(=O)[C@H](C)NC(=O)[C@H](Cc1c[nH]cn1)NC(=O)CNC(=O)CNC(=O)[C@@H](NC(=O)[C@@H]1CCCN1C(=O)[C@@H](NC(=O)CN)[C@@H](C)CC)[C@@H](C)CC)[C@@H](C)O)[C@@H](C)O)C(C)C)C(=O)N[C@@H](C)C(=O)N[C@@H](Cc1c[nH]c2ccccc12)C(=O)N[C@@H](CC(C)C)C(=O)N[C@H](C(=O)N[C@@H](CCCCN)C(=O)NCC(=O)N[C@@H](CCCNC(=N)N)C(=O)NCC(=O)NCC(=O)N[C@@H](CCCCN)C(=O)NCC(=O)N[C@H]1CSSC[C@@H](C(=O)N[C@@H](Cc2ccccc2)C(=O)O)NC(=O)[C@H]([C@@H](C)CC)NC(=O)[C@@H]2CCCN2C(=O)[C@@H]2CCCN2C(=O)[C@H]([C@@H](C)CC)NC(=O)[C@H](CO)NC(=O)[C@H](CCCCN)NC(=O)[C@H]([C@@H](C)O)NC(=O)[C@H](C)NC(=O)[C@H](CCCNC(=N)N)NC(=O)CNC1=O)C(C)C [D-GLP-1-BT9]
hypoglycemic activity, subcutaneous injection (in words) (normal ICR mice [1]; normal ICR mice, 1 μmol/kg s.c., glucose 2 g/kg by gavage): significantly reduced the blood glucose levels at 30, 60, and 120 minutes after oral glucose loading and the AUC | AUC (blood glucose-time curve) (normal ICR mice [1]): 128.0 mg·h/dL | Blood glucose 0 min (normal ICR mice [1]): 53.5 mg/dL | Blood glucose 30 min (normal ICR mice [1]): 90.7 mg/dL | Blood glucose 60 min (normal ICR mice [1]): 66.6 mg/dL | Blood glucose 120 min (normal ICR mice [1]): 38.6 mg/dL | influence on blood glucose, duodenal injection (in words) (normal ICR mice [2]): no significant influence on the blood glucose | Blood glucose 0 min (normal ICR mice [2]; duodenal injection 2.5 μmol/kg): 72.2 mg/dL | Blood glucose 15 min (normal ICR mice [2]; duodenal injection 2.5 μmol/kg): 144.1 mg/dL | Blood glucose 30 min (normal ICR mice [2]; duodenal injection 2.5 μmol/kg): 159.4 mg/dL | Blood glucose 60 min (normal ICR mice [2]; duodenal injection 2.5 μmol/kg): 148.4 mg/dL | AUC (blood glucose-time curve) (normal ICR mice [2]; duodenal injection 2.5 μmol/kg): 141.9 mg·h/dL | Blood glucose 0 min (normal ICR mice [2]; duodenal injection 5.0 μmol/kg): 70.9 mg/dL | Blood glucose 15 min (normal ICR mice [2]; duodenal injection 5.0 μmol/kg): 132.2 mg/dL | Blood glucose 30 min (normal ICR mice [2]; duodenal injection 5.0 μmol/kg): 149.6 mg/dL | Blood glucose 60 min (normal ICR mice [2]; duodenal injection 5.0 μmol/kg): 154.2 mg/dL | AUC (blood glucose-time curve) (normal ICR mice [2]; duodenal injection 5.0 μmol/kg): 136.6 mg·h/dL | Blood glucose 0 min (normal ICR mice [2]; [4]): 61.5 mg/dL | Blood glucose 15 min (normal ICR mice [2]; [4]): 112.5 mg/dL | Blood glucose 30 min (normal ICR mice [2]; [4]): 126.2 mg/dL | Blood glucose 60 min (normal ICR mice [2]; [4]): 138.1 mg/dL | AUC (blood glucose-time curve) (normal ICR mice [2]; [4]): 117.6 mg·h/dL | AUC (blood glucose-time curve) (normal ICR mice [3]): 96.3 mg·h/dL | Blood glucose 0 min (normal ICR mice [3]): 53.7 mg/dL | Blood glucose 15 min (normal ICR mice [3]): 90.5 mg/dL | Blood glucose 30 min (normal ICR mice [3]): 99.9 mg/dL | Blood glucose 60 min (normal ICR mice [3]): 112.6 mg/dL | hypoglycemic activity, duodenal administration (in words) (normal ICR mice [3]; normal ICR mice): significantly reduced the blood glucose level at 15, 30, and 60 minutes after oral glucose loading and the AUC | hypoglycemic activity, duodenal administration (in words) (normal ICR mice [3]; normal ICR mice, listed as SEQ ID NO: 200): absorbed into the blood circulation and have hypoglycemic activity
